The IC50 is the concentration at which inhibition is half-maximal.

Compound in this assay: Cn1c(=O)n(-c2ccc(C(C)(C)C#N)cc2)c2c3cc(-c4cnc5ccccc5c4)ccc3ncc21 [NVP-BEZ235]
The experiment in a line: Viability of human cancer cell lines after 72 h of drug (GDSC screen). The protocol: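 Human cancer cell lines in 384-well plates, medium with 10% serum, drug for 72 h over a 256-fold dose range (nine 2-fold or five 4-fold steps up to the top dose). Adherent lines were fixed and stained with the nucleic acid dye Syto60, suspension lines read with resazurin; signal relative to control wells, capped at 0 and 100%. One two-parameter sigmoid per drug and line, fitted in a mixed model over all curves with the slope shared within a line.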

The IC50 comes from the fitted curve, where viability falls to half of the control; a limit (>, <) means that the fit lies beyond the doses tested. AUC is the area under the same curve over the 256-fold range up to the top dose, as a fraction; it is 1 without any effect and falls as sensitivity rises.

For “CAS-1 (glioma, adherent, top dose 0.25 µM)”, the AUC is 0.823 and the IC50 is 224 nM.

Consider “CCF-STTG1 (glioma, adherent, top dose 0.25 µM)”, for which the AUC was determined as 0.814 and the IC50 amounted to 138 nM.

Take “CCK-81 (large intestine, adherent, top dose 0.25 µM)”: the AUC was 0.933 and the IC50 is above 250 nM.

As to “CCRF-CEM (lymphoblastic leukaemia, suspension, top dose 0.25 µM)”, the AUC was determined as 0.448 and the IC50 was determined as 11.5 nM.

As to “CESS (acute myeloid leukaemia, suspension, top dose 0.25 µM)”, the AUC was determined as 0.891 and the IC50 stood at 218 nM.

“CFPAC-1 (pancreas, adherent, top dose 0.25 µM)”: the AUC was 0.816 and the IC50 was determined as 165 nM.

Regarding “CGTH-W-1 (thyroid, adherent, top dose 0.25 µM)”, the AUC was 0.508 and the IC50 was 16.4 nM.

“CHL-1 (melanoma, adherent, top dose 0.25 µM)”: the AUC came out at 0.507 and the IC50 is 16.3 nM.

As for “CHP-126 (neuroblastoma, suspension, top dose 0.25 µM)”, the AUC was 0.685 and the IC50 worked out at 52.2 nM.

“CHP-134 (neuroblastoma, suspension, top dose 0.25 µM)”: the AUC was 0.796 and the IC50 worked out at 155 nM.

Consider “CHP-212 (neuroblastoma, adherent, top dose 0.25 µM)”, for which the AUC was found to be 0.658 and the IC50 is 41.4 nM.

For “CHSA0011 (chondrosarcoma, adherent, top dose 0.25 µM)”, the AUC is 0.854 and the concentration for half-maximal inhibition (IC50) is above 250 nM.

Turning to “CHSA0108 (chondrosarcoma, adherent, top dose 0.25 µM)”, the AUC was 0.618 and the IC50 was found to be 34.9 nM.

Take “CHSA8926 (chondrosarcoma, adherent, top dose 0.25 µM)”: the AUC worked out at 0.797 and the IC50 was found to be 179 nM.

In the case of “CL-11 (large intestine, adherent, top dose 0.25 µM)”, the AUC worked out at 0.838 and the IC50 was 201 nM.

With “CL-34 (large intestine, adherent, top dose 0.25 µM)”, the AUC was 0.936 and the IC50 is above 250 nM.

As for “CL-40 (large intestine, adherent, top dose 0.25 µM)”, the AUC amounted to 0.865 and the IC50 is above 250 nM.

“CMK (acute myeloid leukaemia, suspension, top dose 0.25 µM)”: the AUC is 0.864 and the IC50 was found to be 166 nM.

Regarding “CML-T1 (chronic myeloid leukaemia, suspension, top dose 0.25 µM)”, the AUC turned out to be 0.611 and the IC50 is 29.8 nM.

As to “COLO-205 (large intestine, suspension, top dose 0.25 µM)”, the AUC was 0.71 and the IC50 is 60.7 nM.

For “COLO-320-HSR (large intestine, suspension, top dose 0.25 µM)”, the AUC is 0.793 and the IC50 stood at 97.9 nM.

As to “COLO-668 (small cell lung carcinoma, adherent, top dose 0.25 µM)”, the AUC is 0.925 and the IC50 is above 250 nM.

Regarding “COLO-678 (large intestine, semi-adherent, top dose 0.25 µM)”, the AUC was found to be 0.956 and the IC50 is above 250 nM.

For the cell line “COLO-679 (melanoma, adherent, top dose 0.25 µM)”, the AUC stood at 0.802 and the IC50 was determined as 141 nM.

With “COLO-680N (oesophagus, adherent, top dose 0.25 µM)”, the AUC amounted to 0.904 and the IC50 is above 250 nM.

Take “COLO-684 (endometrium, suspension, top dose 0.25 µM)”: the AUC was determined as 0.625 and the IC50 amounted to 36.1 nM.

As to “COLO-783 (melanoma, adherent, top dose 0.25 µM)”, the AUC is 0.934 and the IC50 was above 250 nM.

Consider “COLO-800 (melanoma, adherent, top dose 0.25 µM)”, for which the AUC worked out at 0.642 and the IC50 turned out to be 38.2 nM.

Take “COLO-824 (breast, adherent, top dose 0.25 µM)”: the AUC was determined as 0.913 and the IC50 was above 250 nM.

Turning to “COR-L23 (large cell lung carcinoma, adherent, top dose 0.25 µM)”, the AUC was determined as 0.685 and the IC50 was 50.6 nM.

As for “COR-L88 (small cell lung carcinoma, adherent, top dose 0.25 µM)”, the AUC is 0.887 and the IC50 was above 250 nM.

Consider “COR-L95 (small cell lung carcinoma, adherent, top dose 0.25 µM)”, for which the AUC worked out at 0.967 and the IC50 is above 250 nM.

“COR-L279 (small cell lung carcinoma, suspension, top dose 0.25 µM)”: the AUC worked out at 0.862 and the IC50 amounted to 177 nM.

For the cell line “COR-L321 (lung, suspension, top dose 0.25 µM)”, the AUC came to 0.919 and the IC50 was above 250 nM.

Consider “CP50-MEL-B (melanoma, adherent, top dose 0.25 µM)”, for which the AUC stood at 0.735 and the IC50 amounted to 72.6 nM.

As to “CP66-MEL (melanoma, adherent, top dose 0.25 µM)”, the AUC turned out to be 0.884 and the IC50 was above 250 nM.

With “CPC-N (small cell lung carcinoma, suspension, top dose 0.25 µM)”, the AUC amounted to 0.81 and the IC50 is 146 nM.

For the cell line “CRO-AP2 (B-cell lymphoma, suspension, top dose 0.25 µM)”, the AUC worked out at 0.432 and the IC50 amounted to 10.5 nM.

For the cell line CS1 (bone, adherent, top dose 0.25 µM), the AUC came to 0.629 and the IC50 stood at 37.2 nM.

On to “CTB-1 (B-cell lymphoma, suspension, top dose 0.25 µM)”, for which the AUC is 0.615 and the IC50 amounted to 36.4 nM.

Take “CTV-1 (acute myeloid leukaemia, suspension, top dose 0.25 µM)”: the AUC was 0.665 and the IC50 is 40.6 nM.

For “CW-2 (large intestine, adherent, top dose 0.25 µM)”, the AUC was 0.882 and the IC50 was above 250 nM.

As for “Ca9-22 (head and neck, adherent, top dose 0.25 µM)”, the AUC was 0.627 and the IC50 is 34 nM.

With “Ca-Ski (cervix, adherent, top dose 0.25 µM)”, the AUC is 0.694 and the IC50 was 59 nM.

Regarding “CaR-1 (large intestine, adherent, top dose 0.25 µM)”, the AUC turned out to be 0.712 and the IC50 was 85 nM.

As for “Calu-3 (lung adenocarcinoma, adherent, top dose 0.25 µM)”, the AUC was determined as 0.726 and the IC50 was found to be 82 nM.

Consider “Calu-6 (lung adenocarcinoma, adherent, top dose 0.25 µM)”, for which the AUC came to 0.962 and the IC50 is above 250 nM.

For the cell line “Caov-4 (ovary, adherent, top dose 0.25 µM)”, the AUC worked out at 0.969 and the IC50 is above 250 nM.

Turning to “Capan-2 (pancreas, adherent, top dose 0.25 µM)”, the AUC was found to be 0.962 and the IC50 is above 250 nM.

Take “ChaGo-K-1 (non-small cell lung carcinoma, adherent, top dose 0.25 µM)”: the AUC was determined as 0.838 and the IC50 was 210 nM.

On to “D-247MG (glioma, adherent, top dose 0.25 µM)”, for which the AUC stood at 0.761 and the IC50 was 121 nM.

Regarding “D-263MG (glioma, adherent, top dose 0.25 µM)”, the AUC was 0.58 and the IC50 was found to be 27.1 nM.

Turning to “D-283MED (medulloblastoma, adherent, top dose 0.25 µM)”, the AUC was 0.686 and the IC50 worked out at 49 nM.

“D-392MG (glioma, adherent, top dose 0.25 µM)”: the AUC is 0.729 and the half-inhibitory concentration (IC50) amounted to 90.3 nM.

As to “D-423MG (glioma, adherent, top dose 0.25 µM)”, the AUC worked out at 0.687 and the IC50 came out at 59 nM.

With “D-502MG (glioma, adherent, top dose 0.25 µM)”, the AUC was found to be 0.728 and the half-maximal inhibitory concentration (IC50) came to 102 nM.

As to “D-542MG (glioma, adherent, top dose 0.25 µM)”, the AUC worked out at 0.729 and the IC50 is 82.2 nM.

As for “D-566MG (glioma, adherent, top dose 0.25 µM)”, the AUC is 0.548 and the IC50 is 21 nM.

Consider “DAN-G (pancreas, adherent, top dose 0.25 µM)”, for which the AUC was 0.715 and the IC50 stood at 57.7 nM.

As to “DB (B-cell lymphoma, suspension, top dose 0.25 µM)”, the AUC worked out at 0.593 and the concentration for half-maximal inhibition (IC50) came to 29.2 nM.

On to “DBTRG-05MG (glioma, adherent, top dose 0.25 µM)”, for which the AUC worked out at 0.646 and the IC50 amounted to 42.8 nM.

For “DEL (lymphoid neoplasm, suspension, top dose 0.25 µM)”, the AUC came out at 0.934 and the IC50 is above 250 nM.

As to “DG-75 (Burkitt lymphoma, suspension, top dose 0.25 µM)”, the AUC stood at 0.618 and the IC50 was determined as 33.1 nM.

“DIFI (large intestine, adherent, top dose 0.25 µM)”: the AUC is 0.802 and the IC50 turned out to be 129 nM.

Take “DJM-1 (skin, adherent, top dose 0.25 µM)”: the AUC was found to be 0.867 and the IC50 was found to be 223 nM.

The values are drawn from the supplement of paper PMC4967469.
